In PMC2661964, “Mammalian Kinesin-3 Motors Are Dimeric In Vivo and Move by Processive Motility upon Release of Autoinhibition” (PLoS Biology, 2009):
These are yes or no findings as the source states them, for the method shown. For part of these data: Binding seen in cells or lysates may run through a third protein. Each block holds one binder with its values, some of them ahead of it.

Experiments:
KIF1A(1–369)-mCit (rat) = KIF1A(1–369)-mCit (rat) (UniProt F1M4A4); test: cross-linking; lysates of transfected COS cells in borate buffer (50 mM NaBorate, 100 mM potassium acetate, 2 mM MgCl2, 1 mM EGTA, 1% Triton X-100, pH 8.57), 20 mM DMP for 30 min or untreated; SDS-PAGE, immunoblot
[1] = target: KIF1A(1–369)-3xmCit (rat) (UniProt F1M4A4); test: stepwise photobleaching of single molecules (TIRF microscopy); lysates of COS cells expressing 3xmCit-tagged constructs, in flow chambers with Cy5-microtubules, with AMPPNP; number of bleaching steps of 160–200 spots for each construct
[2] = target: KIF1A(1–381)-3xmCit (rat) (UniProt F1M4A4); test: as above

binding (KIF1A(1–369)-mCit (rat)): no binding
B1: KIF1A(1–369)-mCit (domain or fragment, UniProt F1M4A4 1-369)
chain: MAGASVKVAVRVRPFNSREMSRDSKCIIQMSGSTTTIVNPKQPKETPKSFSFDYSYWSHTSPEDINYASQKQVYRDIGEEMLQHAFEGYNVCIFAYGQTGAGKSYTMMGKQEKDQQGIIPQLCEDLFSRINDTTNDNMSYSVEVSYMEIYCERVRDLLNPKNKGNLRVREHPLLGPYVEDLSKLAVTSYNDIQDLMDSGNKARTVAATNMNETSSRSHAVFNIIFTQKRHDAETNITTEKVSKISLVDLAGSERADSTGAKGTRLKEGANINKSLTTLGKVISALAEMDSGPNKNKKKKKTDFIPYRDSVLTWLLRENLGGNSRTAMVAALSPADINYDETLSTLRYADRAKQIRCNAIINEDPNNKLI

binding [1]: no binding
B2: KIF1A(1–369)-3xmCit (domain or fragment, UniProt F1M4A4 1-369)
chain: B1 chain

binding [2]: no binding
B3: KIF1A(1–381)-3xmCit (domain or fragment, UniProt F1M4A4 1-381)
chain: MAGASVKVAVRVRPFNSREMSRDSKCIIQMSGSTTTIVNPKQPKETPKSFSFDYSYWSHTSPEDINYASQKQVYRDIGEEMLQHAFEGYNVCIFAYGQTGAGKSYTMMGKQEKDQQGIIPQLCEDLFSRINDTTNDNMSYSVEVSYMEIYCERVRDLLNPKNKGNLRVREHPLLGPYVEDLSKLAVTSYNDIQDLMDSGNKARTVAATNMNETSSRSHAVFNIIFTQKRHDAETNITTEKVSKISLVDLAGSERADSTGAKGTRLKEGANINKSLTTLGKVISALAEMDSGPNKNKKKKKTDFIPYRDSVLTWLLRENLGGNSRTAMVAALSPADINYDETLSTLRYADRAKQIRCNAIINEDPNNKLIRELKDEVTRLRD
